Assay results: patent US12465604B2 (priority 2015, dated 2025)
Like-named read-outs stand apart in the source and are kept apart here.

Legend:
[1] = test system: HIV OGH double reporter virus in SupT1 cells; format: cell-based, HIV-1
[2] = test system: HIV-1 double reporter virus (OGH) in THP1 cells; format: cell-based; details: THP1, LEDGIN added during virus production
[3] = test system: HIV-1 double reporter virus (OGH) in SupT1 cells; format: cell-based; details: SupT1, LEDGIN added during virus production

CCCC(C(=O)O)c1c(C)nc2ccc(Cl)cc2c1-c1ccccc1 (stereo not shown) [CX014442, 2-(6-chloro-2-methyl-4-phenylquinolin-3-yl)pentanoic acid]
fraction of latently infected cells (% eGFP−, mKO2+ cells)/(% mKO2+ cells)*100 ([1]; SupT1, LEDGIN addition, trend): increase
fraction of latently infected cells (% eGFP−, mKO2+ cells)/(% mKO2+ cells)*100 ([1]; SupT1, concentration of 25 μM): 100%
fraction of quiescent cells (% eGFP−, mKO2+ cells)/(% mKO2+ cells)*100 [2]: increased proportionally with the concentration
fraction of quiescent cells (% eGFP−, mKO2+ cells)/(% mKO2+ cells)*100 [3]: increased proportionally with the concentration
